Assay results published in US20230134136A1 (priority 2020, published 2023).

Tested on: patients with confirmed COVID-19 infection
Details: patients with confirmed COVID-19 infection treated with rasburicase; FIG. 6 legend

B1: rasburicase: A supplement of the uricase protein; uric acid lowering agent (protein, UniProt Q00511 2-302, looked up)
Uricase: SAVKAARYGKDNVRVYKVHKDEKTGVQTVYEMTVCVLLEGEIETSYTKADNSVIVATDSIKNTIYITAKQNPVTPPELFGSILGTHFIEKYNHIHAAHVNIVCHRWTRMDIDGKPHPHSFIRDSEEKRNVQVDVVEGKGIDIKSSLSGLTVLKSTNSQFWGFLRDEYTTLKETWDRILSTDVDATWQWKNFSGLQEVRSHVPKFDATWATAREVTLKTFAEDNSASVQATMYKMAEQILARQQLIETVEYSLPNKHYFEIDLSWHKGLQNTGKNAEVFAPQSDPNGLIKCTVGRSSLKSKL
severity of acute kidney injury: decreased severity of acute kidney injury
